# Experimental data taken from PubChem BioAssay AID1345082 (National Center for Advancing Translational Sciences (NCATS), 2018).
# The campaign covered roughly 94,000 compounds. About 4,000 (4.3%) were called active. Inconclusive results, whose numbers are uncertain, are shown with a selection of clear calls. Calls come from the whole dose curve; as a rule, active = well fitted inhibition curve with a large enough effect; inconclusive = small, poorly fitted or top-dose-only effect; inactive = no such curve, though single readings can be large or run the other way. Potencies of inconclusive entries are doubtful fits and often do not repeat.
# Test: Cytotoxic Profiling in NIH 3T3 Cell Line of Diverse Libraries Using Quantitative High-Throughput Screening; note: nearly all actives have a fitted effect of over 55% in size
# Conditions: NIH 3T3 viability, CellTiter-Glo ATP luminescence, 48-72 h; activity change, negative = cytotoxicity: at 96.7 µM (top of the series) unless noted; series mostly up to 96.7 µM
# Summary of the method: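 Mouse fibroblast NIH 3T3 cells, 400 per well, received compound via pintool and were incubated for 48 or 72 hr prior to CellTiter-Glo ATP luminescence measurement.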
# % is set by controls: 0 for no effect and ±100 for the full control effect; potency is the fitted concentration of half-maximal effect; tags give direction and shape of the fitted curve.
SMILES,"activity change, negative = cytotoxicity",Potency,outcome
COc1cccc(C(=O)N2CCCC(c3noc(COc4ccccc4)n3)C2)c1 (stereo not given),inactive: -29%,,
CCCNC(=O)c1coc(COc2ccc3c(c2)C(c2ccc(C)cc2)N(C(=O)C2CC2)CC3)n1 (stereo not given),,"inconclusive: 35.5 µM [inhibitor, partial curve, poor fit]",
O=C(NCc1ccccn1)C1c2ccccc2CC(=O)N1Cc1ccccc1 (stereo not given),,"inconclusive: 70.8 µM [inhibitor, single point]",
Cc1cccc(OCC2(CNCc3cnn(C)c3)C[C@@H](O)[C@@H](O)C2)n1 (stereo not given in full),inactive: 1.4% [at 174 µM],,
COc1ccc(F)cc1-c1ccc(CN2CCC(NC(=O)c3cccc(Cl)c3)C2)cc1 (stereo not given),,active: 22.4 µM,
CCn1cc(-c2nc3cc(S(=O)(=O)NC(C)C)ccc3n2C(C)C)c(C)n1,,"inconclusive: 44.7 µM [inhibitor, partial curve, poor fit]",
CC(=O)N1CCC(C(=O)N2CCC3(CC2)NC(=O)N(c2ccc(F)cc2)N3)CC1,,"inconclusive: 8.91 µM [inhibitor, full curve, poor fit]",
O=C1c2c(nc(COc3ccc4c(c3)OCO4)n2Cc2ccccc2)NCCN1CC1CCOCC1,inactive: -26.9%,,
Cc1ccc(-c2cc(C(=O)NC3CC3)nn3cnnc23)cc1,,"inconclusive: 89.1 µM [inhibitor, partial curve, poor fit]",
Cc1ccc(CN2CCCCCNC(=O)CC2c2ccccc2)s1 (stereo not given),,"inconclusive: 44.7 µM [inhibitor, partial curve, poor fit]",
COc1ccc(-c2ccc3ncc(Nc4ccnc(N5CCOCC5)c4)n3n2)cn1,,active: 22.4 µM,
CC(C)CN(C1CCN(C)CC1)C1CN(C(=O)COCc2ccccc2)C1,,"inconclusive: 50.1 µM [inhibitor, single point]",
Cc1noc([C@@H]2CN(Cc3cc(F)ccc3F)C[C@H]2CO)n1,,,inactive
COc1cccc(-c2ncc3c(n2)OCCN(c2cccc(C(F)(F)F)c2)C3=O)c1,,"inconclusive: 31.6 µM [inhibitor, partial curve, poor fit]",
O=C(c1cnccn1)N1CC(F)(F)C[C@H]1c1nc(C2CC2)no1,inactive: 3.8%,,
COc1cccc(C(=O)N2CCC(C(=O)N3CCC(N4Cc5cccn5C4=O)CC3)CC2)c1,,"inconclusive: 70.8 µM [inhibitor, partial curve, poor fit]",
CCc1ccc(NC(=O)N2CCCC(c3noc(COc4ccccc4)n3)C2)cc1 (stereo not given),,"inconclusive: 44.7 µM [inhibitor, partial curve, poor fit]",
Cc1ccc(-n2c(C3CCN(C(=O)COc4ccc(Cl)cc4C)CC3)n[nH]c2=O)cc1,inactive: -78%,,
CCOc1ccccc1C(=O)N1CCc2[nH]nc(C(=O)NCCCc3ccccc3)c2C1,,"inconclusive: 35.5 µM [inhibitor, partial curve]",
O=C(c1ccc(CC2CCN(C(=O)c3ccccn3)CC2)cc1)N1CCOCC1,inactive: -7.06%,,
CCc1ccc(S(=O)(=O)N2CCC(n3cnnc3C)CC2)cc1,inactive: -7.52%,,
COc1ccc(C(=O)N2CCN(C(=O)Nc3cccc(OC)c3)C[C@@H]2C(=O)N[C@H]2CCCNC2=O)cc1,inactive: 4.28%,,
Cc1ccccc1N(C)C1CN(Cc2ccc(C#N)cc2)C1,,"inconclusive: 44.7 µM [inhibitor, partial curve, poor fit]",

SMILES,"activity change, negative = cytotoxicity",Potency,outcome
COc1ccc(CC2CCOC3(CCN(C(=O)NCC(C)C)CC3)C2)cc1 (stereo not given),,"inconclusive: 35.5 µM [inhibitor, partial curve]",
Cc1noc(C)c1-c1cc2cc(C(C)C)oc2c(NCCc2ccccn2)n1,,"inconclusive: 39.8 µM [inhibitor, partial curve, poor fit]",
CCN1c2cc(C(=O)Nc3ccc(C)c(C)c3)ccc2C(=O)N2CCCCC21 (stereo not given),,active: 28.2 µM,
CC(=O)N1CCN(C[C@@H]2C=C(C)[C@H](Cc3nnc(-c4ccccc4F)o3)C[C@H]2C(C)C)CC1,,"inconclusive: 50.1 µM [inhibitor, partial curve, poor fit]",
O=C1NCCCCCCN[C@H]2C[C@H](c3nc(-c4cccnc4)no3)C[C@@H]12,inactive: -8.65%,,
O=C(Cc1cccc(F)c1)N1CCC[C@H]1c1nc(-c2ccc(F)cc2)no1,,"inconclusive: 50.1 µM [inhibitor, partial curve, poor fit]",
C=CCOc1cccc(-c2nc(C(=O)NCc3cccc(F)c3)cs2)c1,,"inconclusive: 44.7 µM [inhibitor, partial curve, poor fit]",
O=C(NC1CCCN(c2ccnc3ccnn23)C1)c1ccc2c(c1)OCO2 (stereo not given),,"inconclusive: 44.7 µM [inhibitor, partial curve, poor fit]",
CNC(=O)c1cc(C2CC2)nc2c1c(C1CCN(C(=O)COC)CC1)nn2C,inactive: -4.87%,,
Cc1noc(C)c1[S+](=O)([O-])N1CCN(C(=O)c2nc3cccnc3n(CC(C)C)c2=O)CC1,inactive: -6.61%,,
COc1ccc(-c2ccccc2C(=O)NCC(C)C)nn1,inactive: -1.31% [at 138 µM],,
CN1Cc2cccn2CC1CNC(=O)c1cccs1 (stereo not given),inactive: -18.3%,,
O=S(=O)(O)c1ccc(-c2ncc[nH]2)cc1,inactive: -2.99% [at 138 µM],,
Cc1cccc(C(=O)N2CCCN(Cc3ccncc3)C(c3ccccc3)CC(=O)NCC2)c1 (stereo not given),inactive: -11.5%,,
O=c1[nH]c(C2CCCN(Cc3cccc(-c4cccnc4)c3)C2)nc2ccc(F)cc12 (stereo not given),,"inconclusive: 8.91 µM [inhibitor, full curve, poor fit]",
COc1ccc(OC)c(S(=O)(=O)N2CCCC2c2nncn2Cc2ccncc2)c1 (stereo not given),,,inactive
O=C(c1ccc(C(F)(F)F)cc1)N1CCC2(CC1)CN[S+](=O)([O-])c1cccnc1O2,inactive: -2.64%,,
O=C(c1ccc2c(c1)OCO2)N1CCCC1c1nnc2n1CCNC2 (stereo not given),inactive: -9.88%,,
NCc1ccccc1-c1ccccc1F,inactive: -10.3% [at 138 µM],,
COc1ccc(CN2C(=O)CO[C@H]3CN(Cc4ccccc4)C[C@H]32)cc1,inactive: -35% [at 138 µM],,
CC(C)(O)C#Cc1ccc(-c2nccn2-c2cccc(-n3cncn3)c2)cc1,,"inconclusive: 50.1 µM [inhibitor, partial curve, poor fit]",
Cc1nc2cccnc2n1CC1CCCN(S(=O)(=O)c2ccc(F)cc2F)C1 (stereo not given),,"inconclusive: 44.7 µM [inhibitor, partial curve, poor fit]",
